Experimental findings from US20260258106A1 (BEIJING NEOX BIOTECH, published 2026) are described below.

The target of assay [1] is IL-21R expressed on the surface of HuT78 cells (UniProt Q9HBE5 20-538, limits assumed). Kind of assay: cell-based or functional assay.
For assay [2], the target named is T1, human IL-21R (ACRO, Catalog: ILR-H5226) (human, UniProt Q9HBE5 20-232, limits assumed).
T1 construct: Bought soluble protein used as analyte in BLI; also called IL-21R protein; IL-21 receptor
Kind of assay: BLI (Octet R8), IL-21-Fc on Protein A sensor, IL-21R in solution. As to the method:
The affinity of mutant IL-21 to human IL-21R (ACRO, Catalog: ILR-H5226) was determined by label-free biolayer interferometry (Octet® R8, BLI) as follows:
2: The IL-21R protein was diluted with buffer (10 mM PBS+0.02% tween-20+0.1% BSA, pH 7.4) from the initial concentration of 1000 nM to 3.9 nM in a 4-fold gradient to yield a total of 5 concentrations: 1000 nM, 250 nM, 62.5 nM, 15.6 nM, and 3.9 nM, respectively.
4: The IL-21 mutant-Fc protein was loaded onto the Protein A sensor. The loading time was 90s. The mutant-Fc protein was then eluted and then equilibrated for 30 s. The mutant-Fe protein was then combined with 4 different concentrations of IL-21R protein. The binding time was 120 s. Finally, the bound IL-21R protein was eluted with a buffer. The dissociation time was 180 s.
(Biolayer interferometry detects binding as a change in optical thickness at a sensor tip.)

B1: m103-Fc (Fc fusion)
chain: QGQDRHMIRMRQLIDIVDQLKNYVNDLVPEFLPAPEDVETNCEWSAFSCFQKAQLKSANTGNNERIINVSIKKLKRKPEGGGSEGGGSLTCPSCDSYEKKPPKEFLERFKSLLQKMIHQHLSSRTHGSEDS[human IgG1 Fc with changes not shown]
Usually Kd stands for a measure of binding affinity in units of concentration. A high value points to weaker binding. Broadly, the koff is the first-order rate constant of dissociation. A lower koff goes with slow dissociation. As usually defined, the kon is the rate constant with which the complex forms. Lower therefore signals slower complex formation. Regarding B1, the “pSTAT3 activation(EC50, nM)” value in assay [1] came to 0.0394 nM. Also, in assay [2], the affinity, expressed as Kd, was 5.08 nM; the off-rate constant (koff) amounted to 0.00355 s⁻¹; the on-rate constant (kon) was 699000 M⁻¹ s⁻¹.
